According to the RNAGym collection of RNA variant scans (doi:10.7554/elife.90254):
The source gives no read counts; variants with many changes may rest on few reads.

B1: LINE1-mini (parent)
chain: GGCAGAGCUCAACACAGCGUGGCAAAGUGGCUGUGGCUAGACUGCC

Variants of: B1
Test: self-cleavage, relative activity (ratio to wild type); higher = more cleavage; in vitro, sequencing; the parent is a self-cleaving ribozyme

Variant	self-cleavage
GGCAGAGGUCAACACAGCGUGGCACAGUGGCUGUGGCUAGACUGCA [C8G A25C C46A]	0.21
GGCAGAGCUUAACACAGCGUGGCAAAGUGGCUAUGACUAGACUGCC [C10U G33A G36A]	0.03
GGCAGAGCUCAAAACAACGUGGCAAAGUGGCUUUGGCUAGACUGCC [C13A G17A G33U]	0.01
GGCAGAGCUCAACACGGGGUGGCAAAGUGGCUGUGGCUAGACUGCU [A16G C18G C46U]	0.04
GGCAAAGCUCAACAUAGCGUGGCGCAGUGGCUGUGUCUAGACUGCC [G5A C15U A24G A25C G36U]	0.05
GGCAGAGCUCAACAAAACGUGGCAAAGUGGCUGUGGCUAGAGUGCC [C15A G17A C42G]	0.05
GGCAGAGAUCAACAUAGUCAGACAAAGCGGCUGUGGCUAGACUGCC [C8A C15U C18U G19C U20A G22A U28C]	0.25
GGCAGAGCUCAACACUGCGUGGCAAAGUGGCUGUGGGUAGACUCCC [A16U C37G G44C]	0.04
GGCAGAGAUCAACACAGCGUGGUAAAGUGGCUGCGGCUAGAAUGCC [C8A C23U U34C C42A]	0.17
GGCAGAACUCAACACAGCGUGUCAAAGUGGCUGUGCCUAGACUGCC [G7A G22U G36C]	0.09
GGUAGAGCUCCAUACAGCGUGGCAAAGUGGCUGUGGCUAAACUGCC [C3U A11C C13U G40A]	0.03
GGUAGAGCUCAAUACAGCGCGGCAAAGUGGCUGUGGCUAGACAGCC [C3U C13U U20C U43A]	0.03
GGCAGAGCUCAACACAGCGUGGUAAAGGGGUUGUGGCUAGACUGCC [C23U U28G C31U]	0.75
GGCAGAGCUCAACACAGCGAGCCAAAGUGCCUGUGGGUAUAAUGUC [U20A G22C G30C C37G G40U C42A C45U]	0.02
GGCAGAGAUCAAUACAGCGUGGCAAAGAGGCUGUGGCUAGACUGCC [C8A C13U U28A]	0.31
GGCAGUGCUCAACUCAGCCUGGCAAAGUGGCUGUGUCUAGACUGCC [A6U A14U G19C G36U]	0.14
GGCAGAGCUCAACACAGCCUGGCAAAGUGGCGGUGGCUAGACUCCC [G19C U32G G44C]	0.04
GGCAGAGCUCAACACGGCGUGGCAAAGUGGUUGUGGCCAGACUUCC [A16G C31U U38C G44U]	0.03
GGCAGAUCUCAACAAGGCGUUGCAAAGUGGCUGUGGCUAGACUGCC [G7U C15A A16G G21U]	0.07

Variant	self-cleavage
GGCAGAGCUCAACACAGCGUGGCAAAGUGGCUGUGGAGAGUCUGCC [C37A U38G A41U]	0.01
GGCAGAGCUCAACACAGCGUGUCAAAUUGGCUUUGUCUCAACUGCC [G22U G27U G33U G36U A39C G40A]	0.06
GGCAGACCUCAACACAGCGACGCAAAGUGGCUGUGGCUACACUGCC [G7C U20A G21C G40C]	0
GGCAGCGCUCAAGACAGCGUGGCGAAGUGGCUGGGGCUAGACUGCC [A6C C13G A24G U34G]	0.02
GGCAGAGCUCAACACGGCGUGGCAAAGUGGCUGUUGCUAAAUUGCC [A16G G35U G40A C42U]	0.09
GGCAGAGCACGACACAGAGAGGCAAAGUCGCUGUGGCUAGACUGCC [U9A A11G C18A U20A G29C]	0.03
AGUAAGGCUCAACACAGCGUGGCAAAGUGGCUGUGGCUAGACUGCC [G1A C3U G5A A6G]	0.49
GUCAGAGCUCAAGAUAGCGUGGCAAAGUGGCUGUGGCUAGACUGCC [G2U C13G C15U]	0.03
GGUAGAGCUCAACACAGCGUGGCAAAGUGGCUGUUGUUAGACUGCC [C3U G35U C37U]	0.03
GGCAGAGCUCAACAAAGCGUGGCAAAGUGACUGUGGCUAGACUGGC [C15A G30A C45G]	0.06
GGCAGAGCUCAGCGCAGCGUGGCAAAUUGGCUGUGGGGAGACUGCC [A12G A14G G27U C37G U38G]	0.02
GGCAGAGCUCCACACAGCGUGGCAAAAUGGCUGUAGCUAGACUGCC [A11C G27A G35A]	0
GGCAGAGCUCAACACAGCGUGGCAAAGUGGCUAUGAGUAGACUCCC [G33A G36A C37G G44C]	0.02
AGCAGACCUCAACACAGCGUGGCAAAGUUUCAGUGGCUAGACUGCC [G1A G7C G29U G30U U32A]	0.16
GCCAGAGCUGAACACAGCGUGGCAAAAUGGCUGAGGCUAGACUGCC [G2C C10G G27A U34A]	0.01
GGCAGAGCUCAACACACCGUGGCAAAGUGGCUGUGACUAGAGUGCC [G17C G36A C42G]	0.02
GGCAGAGCUCAACACAGCGUGGCAAGGUGGCUGUGGUUAGACUACC [A26G C37U G44A]	0.06
GGCAGAGCUGAACAUAGCGUGGCAAAGUAGCUGUGGGUAGACUGGC [C10G C15U G29A C37G C45G]	0.01
GGCAGAGCUCAACACAGCGUGUCAAAGUGGCUCUGGAUAGACUGCC [G22U G33C C37A]	0.06

Variant	self-cleavage
GGCAGAGCUCAACACAGCGUGGCGAAGUGGCUGUGGCUGGACUUCC [A24G A39G G44U]	0.1
GGCAGAGCGCAACACCGCGUGGUAAAGUGGCUGUGGCUAGGCUGCC [U9G A16C C23U A41G]	0.02
GGCAGAGCUCAAUACAGCGUAGCAAAGUGGCUGUUGCUUGACUGCC [C13U G21A G35U A39U]	0.32
GGCAGGGGUCAACACAGCGUGGCAAAGAGGCUGUGGCUAGACUGCC [A6G C8G U28A]	0.05
GGUAGGGCUCAACACAGCCUGGCAAAGUGGUUGUUGCUAGACUGCC [C3U A6G G19C C31U G35U]	0.04
GACACAGCUCCACAAAGCGUGGCAAUGUGGCUGUGGCUAGACUGCC [G2A G5C A11C C15A A26U]	0.02
GGCUGAGCUCAACACAGCGUGGCAGAGUGGCAGUGGCUAGACUGCC [A4U A25G U32A]	0.02
GGCCGAGCUCAACACAGCUUGGUAAACUGGCUGUGGCUAGGCUGCC [A4C G19U C23U G27C A41G]	0.07
GCCGGUCCUCAACACAGCCUGGCAAAGUGGCUGUGGCUGGACUGCC [G2C A4G A6U G7C G19C A39G]	0.07
GGCAGCGCUCGACACAGCGUGGCAAUUUGGCUGUGGCUAGACUGCC [A6C A11G A26U G27U]	0.01
GUCAGGUCUCAAAACAACGUGGCAAAGUGGCUGUGGUUAGACUGCC [G2U A6G G7U C13A G17A C37U]	0.03
GGUAAAGCUCAACACACCGUGGCAAAGUGGCUUUGGCUAGACUGUC [C3U G5A G17C G33U C45U]	0.05
GGCAGAGGUGAAUACAGCGUGGCAAAGUGGCUGGGGCUAGACUGCC [C8G C10G C13U U34G]	0.03
GACAGAGCUCAACAAAGCGUGGCAAAGUGGCUGUGGUAAUACUUCC [G2A C15A C37U U38A G40U G44U]	0.19
CGCAGAGCUCAUCACACCGUGGCACAGUGGCUGUGGCUAGACCGCC [G1C A12U G17C A25C U43C]	0.01
GGCAGAGCUCAACACAGCGUGGCAAACUGGCUAAGGCUAGACUGCC [G27C G33A U34A]	0.04
GGCAGAGCUCAACACAGCAUGGCAAAGUGGCUGUGGCCAGGCUGCC [G19A U38C A41G]	0.28
GGCAGUGCUCAACACAGCGUGGCAAAGUGGCUGUAGCUAGAGUCCC [A6U G35A C42G G44C]	0.07
